Test results published in the supplement of paper PMC3334620.
The full ranking holds about 33,000 sequences; the median of “E-score (-0.5 to 0.5)” is about -0.011, and the highest 2% start at about 0.28. This is one part of the list.

Target: T1, Gcr1 (UniProt P07261)
T1 sequence: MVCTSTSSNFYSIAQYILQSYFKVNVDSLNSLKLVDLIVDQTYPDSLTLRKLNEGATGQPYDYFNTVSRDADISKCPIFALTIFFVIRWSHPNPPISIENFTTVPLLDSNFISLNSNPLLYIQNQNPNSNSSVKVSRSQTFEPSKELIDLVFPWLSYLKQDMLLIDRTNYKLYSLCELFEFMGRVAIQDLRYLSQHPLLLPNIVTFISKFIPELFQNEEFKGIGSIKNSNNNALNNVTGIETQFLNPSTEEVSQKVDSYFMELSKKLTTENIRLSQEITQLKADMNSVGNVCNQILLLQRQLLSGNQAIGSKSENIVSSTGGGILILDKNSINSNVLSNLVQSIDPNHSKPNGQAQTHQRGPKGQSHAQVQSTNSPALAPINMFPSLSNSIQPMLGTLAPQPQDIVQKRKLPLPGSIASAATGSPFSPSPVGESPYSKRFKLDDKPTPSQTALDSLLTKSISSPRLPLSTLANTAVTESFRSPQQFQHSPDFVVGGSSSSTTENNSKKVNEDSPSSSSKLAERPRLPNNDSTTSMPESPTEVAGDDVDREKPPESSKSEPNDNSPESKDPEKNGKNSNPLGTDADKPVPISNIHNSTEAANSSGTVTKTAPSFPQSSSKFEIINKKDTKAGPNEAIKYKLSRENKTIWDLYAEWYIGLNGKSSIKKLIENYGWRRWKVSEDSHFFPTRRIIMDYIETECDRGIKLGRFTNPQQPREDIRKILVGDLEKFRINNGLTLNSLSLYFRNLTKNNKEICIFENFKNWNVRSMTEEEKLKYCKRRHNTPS
Assay: PBM E-score (8-mer binding enrichment) (E-score (-0.5 to 0.5)); higher = stronger / more preferred TF binding; most listed sequences are background and not binding sites
Conditions: protein concentration: 100 nM; construct: GST-full length
Summary of the method: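 For each ungapped eight-base word taken together with its reverse complement, the Universal PBM Analysis Suite assigned an E-score. Binding data came from GST-tagged yeast transcription factors, applied at about 100-200 nM, on universal all-10-mer Agilent arrays made double-stranded by primer extension. Fluorescent anti-GST marked bound protein, and scans were normalised with masliner.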

| Sequence | PBM E-score |
| --- | --- |
| ACTTAGTC | -0.278 |
| ATGGGAAC | 0.0822 |
| ATTCCGAA | 0.147 |
| CCCTATCG | -0.00206 |
| ATAAAGAT | 0.135 |
| ACTTAGAC | 0.00479 |
| GCCCTACA | -0.119 |
| AGCTTGTA | 0.12 |
| GGAGAGAC | -0.0279 |
| TCGTAGCA | -0.018 |
| GTGTTAAC | 0.0195 |
| CGCCCACC | 0.00485 |
| TATAGTGA | -0.263 |
| ACTTAAAT | 0.129 |
| ACTGTAAG | 0.0493 |
| TAGTCCCA | -0.269 |
| ACTAGAAA | 0.0694 |
| AACCCAAC | 0.116 |
| GATTCCTA | 0.439 |
| ATGAAGCA | -0.19 |
| ACTTTGAC | 0.0912 |
| GTTCATGA | -0.0786 |
| CTCAATAC | -0.00463 |
| AGAGATGA | -0.0147 |
| AGCAGAAA | 0.0713 |

| Sequence | PBM E-score |
| --- | --- |
| ATGCTCAG | 0.16 |
| CATTAGCG | 0.0994 |
| AGCGCATG | -0.0716 |
| ACAAACAC | 0.135 |
| GTTGCTGA | 0.0955 |
| CCTTTTCC | -0.103 |
| AGGGATAC | 0.0126 |
| AACCAGCG | 0.00077 |
| CATCAACC | -0.0283 |
| CATTTTGC | -0.188 |
| GGTCAACA | -0.205 |
| GGTGATGA | 0.0597 |
| CAACACCA | -0.00356 |
| TACGAGCA | -0.084 |
| AAACGAAC | -0.0756 |
| CGCTACCA | 0.182 |
| GGAGATGA | -0.243 |
| ATATTCTA | 0.0278 |
| TAGTGATA | 0.0388 |
| CTACTTCC | 0.0906 |
| AAATGGGC | 0.0949 |
| CGAGGTAC | -0.00307 |
| GGACCAAC | -0.16 |
| TAGCTTCA | 0.0672 |
| CGACATGA | 0.119 |

| Sequence | PBM E-score |
| --- | --- |
| AGCTGACG | -0.103 |
| CTTCATTA | -0.0603 |
| GTCAGGTA | 0.091 |
| ATAGAGCA | -0.0362 |
| CGTAAACA | -0.0146 |
| GTATGTGA | 0.0541 |
| CTGTCCTC | -0.108 |
| GACGTAGC | 0.0787 |
| ACGCTACG | -0.0913 |
| CATATGTA | 0.0562 |
| AAACATTG | 0.102 |
| AGTCGAGC | -0.0406 |
| AGTAATTC | 0.176 |
| AGAGAATA | -0.127 |
| GGCACCTA | 0.281 |
| AGCATCTA | 0.319 |
| CACATCGG | -0.0866 |
| AACATCGG | -0.136 |
| AATAAGGG | -0.0652 |
| CTATCCAA | -0.0753 |
| ACACCCAG | -0.139 |
| TCCCTTCA | -0.0396 |
| CGAATCCA | 0.215 |
| ATTTAAGC | 0.223 |
| GTGCATTA | -0.0893 |

| Sequence | PBM E-score |
| --- | --- |
| GCAGCCTA | 0.21 |
| TGTATACA | -0.27 |
| CCGACCGC | -0.278 |
| TAGGACGA | -0.219 |
| GAATCCGC | 0.235 |
| TAACATCA | 0.0816 |
| ACCCAGGG | -0.0729 |
| ACGCGTCA | -0.171 |
| GTCTGACA | -0.00585 |
| GCCTACAC | -0.0148 |
| ATTCGTGG | 0.0839 |
| CTGCGGGA | 0.162 |
| AATCTACT | 0.0661 |
| GCATCGAA | 0.0289 |
| AGCTCGCC | -0.253 |
| GCATCACA | 0.0953 |
| GTCTTGCA | -6e-05 |
| ACGTGAGC | 0.00326 |
| AGACCGTG | -0.333 |
| AACTCTCC | -0.145 |
| AGACATGC | -0.0808 |
| AAGGGGTA | -0.056 |
| AACACCGA | -0.0565 |
| AGGTGCAT | 0.0543 |
| CAGCTGTC | -0.0336 |

| Sequence | PBM E-score |
| --- | --- |
| GCTACCAC | 0.323 |
| TGCGTGAA | 0.0341 |
| CGAAACAG | 0.0228 |
| AAGTCTCC | -0.0643 |
| CATGAGCA | -0.144 |
| CAATTGTG | 0.0106 |
| ATACCGTC | 0.00724 |
| AAGCCTAA | -0.119 |
| ATGCATGA | -0.00529 |
| CTAGACTC | 0.0719 |
| CGAGTCAA | -0.223 |
| CGGCGCCG | 0.113 |
| TAAACTCA | -0.108 |
| AGCCACAC | 0.235 |
| AAACTCAT | 0.0159 |
| CGCAGATC | -0.0553 |
| CTGATACA | -0.124 |
| CGACTACG | -0.151 |
| CGAGCCCA | -0.119 |
| ACCGCTAC | -0.0203 |
| AGTCGCCC | 0.23 |
| CGGCGTCC | 0.412 |
| AGAGGTAG | 0.0431 |
| TATAAAAA | 0.193 |
| CAATGAGC | 0.0207 |

| Sequence | PBM E-score |
| --- | --- |
| AAGTCATT | 0.0655 |
| CGGCATCA | 0.223 |
| GCTGGTAA | 0.122 |
| ATGCTAGG | -0.0494 |
| CGCTATGA | -0.0306 |
| AGTCGGAT | 0.0121 |
| GTAAAACA | 0.0102 |
| AGTAGTTA | 0.0792 |
| CTCGAGAA | -0.0292 |
| TAATATGA | 0.187 |
| CGAGGGTA | -0.198 |
| ACTATACA | -0.0944 |
| CTTGAAGA | 0.0304 |
| ACAGCTTA | -0.0153 |
| ATAAGGAT | 0.128 |
| CGTAATGA | -0.0599 |
| ATAGCTAT | 0.073 |
| CATCCGCG | 0.00816 |
| AATGACGT | -0.0848 |
| AAGTACTA | -0.0751 |
| AAGTGGCC | 0.085 |
| ATTGCGTA | -0.0537 |
| TGATCCAA | -0.00056 |
| ACGATTAT | 0.0139 |
| AGCAGGTG | -0.00993 |

| Sequence | PBM E-score |
| --- | --- |
| AACCGCCT | 0.00084 |
| AACAGCTC | -0.169 |
| GCGCCCCA | 0.239 |
| AGGAAATG | -0.145 |
| TAAGTAAA | -0.00128 |
| GCTGGTTA | 0.0507 |
| CATACCAG | 0.0992 |
| AAAGTTAG | -0.0674 |
| ATGTCGCC | 0.129 |
| CACAAAAA | 0.245 |
| CACTAGCC | -0.188 |
| ATGTGCAA | 0.12 |
| ATATGAAG | -0.0858 |
| ACACTGGT | 0.035 |
| ATAACGTG | -0.138 |
| AATCCACC | -0.168 |
| CCGTACAA | -0.0933 |
| CGAGCCAG | -0.214 |
| CAAATGGA | -0.0274 |
| CAAGCCAG | -0.272 |
| AGCCTATC | 0.0792 |
| ACTGTACG | -0.14 |
